± gives the standard deviation of the averaged measurements. The list shows a part of the results.
The sequences below were run on PfAP2-G AP2 domain (GST-tagged) (assay: gcPBM binding intensity (ln(normalized median fluorescence intensity)); higher = stronger DNA binding).
How it was run: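 Probes on an Agilent 4 × 180k array were primer-extended, double-stranded and 36 bp long, taken from intergenic genomic regions, with negative controls added. GST-tagged P. falciparum DNA-binding domains from E. coli, about 25 μg on average, were applied to the array for 1 h in 1× PBS containing 1% milk, 0.2 mg/ml BSA, 0.5% salmon testes DNA and 0.03% Triton X-100. Binding intensity, obtained after Alexa488 anti-GST antibody detection and a 488 nm scan, is the highest Masliner-normalised natural-log median intensity across replicate spots of either probe orientation.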

Row | Sequence | gcPBM binding intensity (ln)
1 | TAAAGGTAGATATATTGTACATACACACCTATATAA [XGTACX_site6865] | 10.9 ± 0.45
2 | TCATTGAAAATTGTTGCACACATAATAATTAAATAT [CACACA_site8554] | 10.3 ± 0.28
3 | ACACATATGTCTTCATGTACATAATATATAAATCTT [XGTACX_site3438] | 11.2 ± 0.71
4 | CATAAATCAGCCATAACACACATACATATATACATA [CACACA_site8025] | 9.97 ± 0.057
5 | ATAATATAAACGTATACACACAAGAGAAGCATAAAG [CACACA_site2889] | 10.2 ± 0.22
6 | AAAAGGAAAGGAAAGGGTACAATCCTATTATATTAT [XGTACX_site8652] | 11.1 ± 0.66
7 | TTTTTTTAAAAAAAGGGTACATATATATATTTTTCT [XGTACX_site1066] | 11.3 ± 0.74
8 | AAAAATAAATTTATATATTACAAGAACAAATATAGT [XGTACX_negctrl_site567] | 10.3 ± 0.28
9 | GAATAAATAAGATACGTACACACATATACAAAATAT [CACACA_site3660] | 11.7 ± 1.1
10 | TAATTATTTTAAAAAGTGCATTAAAAGATATTAAAT [GTGCAC_site9694] | 10.1 ± 0.19
11 | TTATTATAAAAATGTAGTACAATACTTTTTTTTTTT [XGTACX_site732] | 11.7 ± 0.84
12 | GTATTACATGAGGACACACACAAAAAAAATATATAT [CACACA_site769] | 11.2 ± 0.7
13 | ATAAAATGAACAAACACACACACATATATTTATATA [CACACA_site7181] | 10 ± 0.014
14 | ATATACTTTAAAGGTTAAGAAAGAAAAAAAAAAAAA [CACACA_negctrl_site956] | 9.75 ± 0.28
15 | ATATATATATATTATATGCACACGTTAAAATTTCAT [CACACA_site709] | 10 ± 0.014
16 | TATATATCTATAAACACACACCAAAATTTGTGCTTT [CACACA_site7448] | 9.87 ± 0.042
17 | GAAGAGACTTAGAAAACACACATACATAAGATAATT [CACACA_site5333] | 9.85 ± 0.057
18 | AAAAAAAAAAAAAAAACACACATAAAACTATAATAA [CACACA_site7758] | 10.2 ± 0.24
19 | TTAAAAAGATGTCACTGTACATAAAACATAAAATAT [XGTACX_site2886] | 11.2 ± 0.78
20 | TAAACAGACATATAAACACACATACATACATACATA [CACACA_site7215] | 10 ± 0.17
21 | TTTCATGACAATGTTTGTACATAATAAAATATATTT [XGTACX_site7039] | 11 ± 0.56
22 | ATATAGTAAAGTTATACACACATGAATTTTCCCATG [CACACA_site6923] | 10 ± 0.071
23 | TTAGAAAAATTATATATACACACTTATATTTATATA [CACACA_site2821] | 9.63 ± 0.085

Row | Sequence | gcPBM binding intensity (ln)
24 | ATATATCAAAATAATTGTACAAATTTTATATAATTT [XGTACX_site7249] | 10.9 ± 0.5
25 | ATATGTATCTCATCGTGTACATGTATATAATATATA [XGTACX_site4139] | 11.3 ± 0.68
26 | AAAAAATTATATTATGCACACATCGTTATATATATA [CACACA_site1201] | 9.85 ± 0.014
27 | TATATATACTATAACACACATACACCCAAAAAAAAA [CACACA_site536] | 10.3 ± 0.3
28 | GTCATATATAATTGTTGTACATTTTTATAATTATGT [XGTACX_site8091] | 11.2 ± 0.71
29 | AATTTTCTTAAAATTTGTACGTATATATTTAATATA [XGTACX_site3906] | 11.3 ± 0.61
30 | AATATAAATGTGATTACACACAACACATTTAAATGT [CACACA_site1212] | 9.985 ± 0.049
31 | CTTATACATATATATAGTACATATATCATTTTTATG [XGTACX_site4462] | 10.9 ± 0.43
32 | ATATATAATATTTATTGTACTATTTTATTTTTATAA [XGTACX_site705] | 11.2 ± 0.81
33 | TTTGACATACCTCTTGCATGTGAAAAACTTTTCGCT [TGCATGCA_site364] | 10 ± 0.099
34 | AAAAAAGACCATGTTAGTACATAAGATTTTTTTCAT [XGTACX_site4298] | 11.2 ± 0.83
35 | AATACGTTATTATTTTGTACATATAAATAATAAGTT [XGTACX_site815] | 10.9 ± 0.6
36 | TTTTTTTTTTCTTTTTGTACATATTCATAACAAGTA [XGTACX_site2784] | 11 ± 0.7
37 | TATATAATCGAGTGCACACACAAAAAAAAAGTGAAC [CACACA_site1483] | 10.6 ± 0.42
38 | TATTATATATATATCACACATATATTCATGTACATA [CACACA_site5432] | 11 ± 0.64
39 | ACTCTTTTAACGCAAAGTACTTTTTAAAATATTTCG [XGTACX_site7534] | 11.2 ± 0.54
40 | AACATACGAATATTCACACATAAATATATAAATCGC [CACACA_site4672] | 10 ± 0.17
41 | ATTTCTATTTGGGTTAGTACATATAAGTCTATTTTC [XGTACX_site3234] | 11 ± 0.6
42 | ATAATATTATGTGTGAATATATCTTTAAAAAGGATA [GTGCAC_negctrl_site15] | 9.865 ± 0.078
43 | TATATATTTCATAATACACACGAAAAAAAAAAAAAA [CACACA_site8972] | 9.83 ± 0.44
44 | ATAAAAATAAAATAAGGTACAGACGAAAAAATTGAA [XGTACX_site5097] | 11.2 ± 0.78
45 | CACAAAAATAGACACACACACATATAAATAAATATA [CACACA_site6598] | 9.93 ± 0.13
46 | TAACTCTATTTTTTTGCATGCTGAAGCTATGAGTTT [TGCATGCA_site821] | 9.7 ± 0.071

Row | Sequence | gcPBM binding intensity (ln)
47 | TATGTAGGTAAAAATTGTACTTTTTTTTTAATATTT [XGTACX_site2303] | 11.6 ± 0.76
48 | TGACATAATGTGTGTAGTACATATATCGTTATTTGA [XGTACX_site5152] | 11.3 ± 0.8
49 | TGAATAAATATAAAAGGTACACATATAAATATATAT [XGTACX_site6349] | 11.2 ± 0.81
50 | ATATATATATATATATGTACACATATTATAAAAAAA [XGTACX_site8644] | 11.5 ± 1
51 | TATATATATAAATACACACACACCGTCCGTGTTAAA [CACACA_site5623] | 10.3 ± 0.2
52 | ATATATATTATATAGTGTACCTATGTATAATAATAT [XGTACX_site1683] | 11.1 ± 0.75
53 | AAAATAGGGATCACGTGTACATATAAAGTGACATAC [XGTACX_site8190] | 11.5 ± 1.1
54 | AATGCATACACATATTGTACTAAGCCATACAACACA [XGTACX_site305] | 10.8 ± 0.45
55 | TTCTAGAAAACTGATCGTACAAATAAATATAGACAC [XGTACX_site2808] | 11 ± 0.57
56 | ATATATTATAATGATACACACAAGAAATAAAATTAC [CACACA_site3095] | 10.23 ± 0.042
57 | TATAAAATAAAAGTAAATATATATATATATATATAT [TGCATGCA_negctrl_site208] | 9.92 ± 0.57
58 | ATTATATGTAACACGTGTACCTATTTATGTATGCTT [XGTACX_site5748] | 11.3 ± 0.76
59 | TGATAATTTCATTTTGCATGTGACAATACAAGATGT [TGCATGCA_site203] | 10.1 ± 0.33
60 | AATGGTTCAACGTAGTGTACGTAATAAATAATAAAT [XGTACX_site8668] | 11.8 ± 0.95
61 | AAATAATATGTAATCAAATTCACCAAACGAAAAAAA [TGCATGCA_negctrl_site33] | 9.96 ± 0.11
62 | AATATACAAAATATCACACATATAAAATAATATATA [CACACA_site6067] | 9.665 ± 0.078
63 | GATATATAAACATATACACACAAAAACATATTTATA [CACACA_site6734] | 10.1 ± 0.19
64 | TATTGCCCGAAACACACACACATATATATATATATA [CACACA_site2491] | 10.3 ± 0.38
65 | GTTTATCACAGCCACGCACACATAATATATGTATAT [CACACA_site3669] | 10.2 ± 0.11
66 | TACATATAAAAGTACACACACACACCCATATATATA [CACACA_site941] | 11.6 ± 1.1
67 | ATGGACTTTTATAGTTGTACATACTATGAGAACTTT [XGTACX_site2800] | 11.7 ± 0.85
68 | TAAAATAAATTGTGCACACATATTTATAAATATGAA [CACACA_site2331] | 10.5 ± 0.16
69 | AAATAATTTGTTGACACACACACACCCATACATATA [CACACA_site2285] | 10.5 ± 0.34

Row | Sequence | gcPBM binding intensity (ln)
70 | TATAATATTTACGACAGTACATATATATATATGTAT [XGTACX_site8332] | 10.6 ± 0.47
71 | AGATGATATACGTAAACACACAAATAAAAAAAATTT [CACACA_site3327] | 10.3 ± 0.33
72 | GAGTTCAGTTTTTGTTGTACTTATTCTTAATATGTC [XGTACX_site6083] | 11.4 ± 0.85
73 | TTTTTTTTTTTTTGATGTACTTATTTAATAAGATAT [XGTACX_site376] | 11.4 ± 1.1
74 | TATATGGCATATTTCACACACACATAATGAATATTA [CACACA_site9181] | 9.92 ± 0.13
75 | ATATAGCATATAATTTGTACACAGGCCATACCTGAA [XGTACX_site533] | 11.1 ± 0.77
76 | ACAAAAAAATAAGGTGCACACAAAAAAAAAAAAAAA [CACACA_site8171] | 10.6 ± 0.94
77 | AAAAAAAAAACATACACACACATATATATATATATG [CACACA_site1586] | 10 ± 0.2
78 | TGTCCTTATTTGCACACACACATATAAGAAATTTAA [CACACA_site7485] | 10.6 ± 0.37
79 | ATCCAAAAAATTAATGCATGCGCAAAAAATAGCTTA [TGCATGCA_site615] | 9.56 ± 0.24
80 | TTTGTTTTATCTTATATGCACACGATAAAAAAAAAA [CACACA_site2673] | 10.2 ± 0.47
81 | TTTTTTTAAATATACACACACATTTATACATATATA [CACACA_site3400] | 10.1 ± 0.14
82 | GTTATACATTTTGATTGTACATAAACCATTTGAGCA [XGTACX_site7283] | 11 ± 0.48
83 | TGAAAAGAAAACACATGTACAAATATATAAATATAA [XGTACX_site6098] | 10.8 ± 0.35
84 | TAAGGATGAATCCTTTGTACATATATATATATATAT [XGTACX_site1242] | 10.7 ± 0.57
85 | AAGAAAAAATAAAAAATAAAAATAAAAAATAAAAAA [TGCATGCA_negctrl_site274] | 9.46 ± 0.014
86 | TATAAACATATCATATGTACATATATTTTTATAAAA [XGTACX_site8882] | 11.2 ± 0.64
87 | ATATATTTTTGTAGTGTGCACGTTTATATGGTGAAA | 10.6 ± 0.5
88 | TTTAACGTTGAATATACACACATATATATATATATA [CACACA_site3698] | 10.1 ± 0.35
89 | ATATATTTACATATTACACACAATATTGTACACATA [CACACA_site6564] | 11.5 ± 0.99
